# Measured values from the supplement of paper PMC4604168 (melanoma cell lines).
# This is one part of the list. Repeats are few or missing, and single values can be far off.
# Assays:
# Experiment in all cases: cell count relative to DMSO control; melanoma cells; higher = more viable cells
# Conditions in all cases: library dose: low library concentration; 72 h
# WM115 = test system: WM115
# WM1716 = test system: WM1716
# WM1745 = test system: WM1745
# WM3526 = test system: WM3526
# WM3619 = test system: WM3619
# WM451Lu = test system: WM451Lu
# 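Further: cell number obtained by counting DAPI-stained nuclei in high-throughput microscope images with image analysis software, screen run in 1,536-well plates.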
smiles,measurement,setting,value
"Cc1ccc(Nc2nccc(N(C)c3ccc4c(C)n(C)nc4c3)n2)cc1S(N)(=O)=O [Pazopanib] + NC(=O)c1ccc(N(C(N)=O)c2c(F)cccc2F)nc1-c1ccc(F)cc1F [VX702] (first compound 0.4 µM, partner dose 0.4 µM)",cell count,WM115,97.7%
same,cell count,WM1716,97.8%
same,cell count,WM1745,83.5%
same,cell count,WM3526,88.8%
same,cell count,WM3619,105%
same,cell count,WM451Lu,99.5%
"O=C(/C=C/c1cccnc1)NCCCCC1CCN(C(=O)c2ccccc2)CC1 + CCCCCCCCc1ccc(CCC(N)(CO)CO)cc1 [fingolimod] (first compound 0.01 µM, partner dose 2 µM)",cell count,WM115,93.8%
same,cell count,WM1716,70.7%
same,cell count,WM1745,92.2%
same,cell count,WM3526,90.2%
same,cell count,WM3619,70.7%
same,cell count,WM451Lu,111%
"O=C(/C=C/c1cccnc1)NCCCCC1CCN(C(=O)c2ccccc2)CC1 + Nc1ncn([C@H]2C[C@H](O)[C@@H](CO)O2)c(=O)n1 [decitabine] (first compound 0.01 µM, partner dose 0.1 µM)",cell count,WM115,84.3%
same,cell count,WM1716,79%
same,cell count,WM1745,102%
same,cell count,WM3526,114%
same,cell count,WM3619,80.2%
same,cell count,WM451Lu,92.2%
"O=C(/C=C/c1cccnc1)NCCCCC1CCN(C(=O)c2ccccc2)CC1 + COc1cc2c(Oc3ccc4[nH]c(C)cc4c3F)ncnc2cc1OCCCN1CCCC1 [cediranib] (first compound 0.01 µM, partner dose 0.4 µM)",cell count,WM115,85.8%
same,cell count,WM1716,96.8%
same,cell count,WM1745,95.1%
same,cell count,WM3526,94.4%
same,cell count,WM3619,93.6%
same,cell count,WM451Lu,102%
"O=C(/C=C/c1cccnc1)NCCCCC1CCN(C(=O)c2ccccc2)CC1 + N#Cc1c(O)c2c(-c3ccc(-c4ccccc4O)cc3)csc2[nH]c1=O [A769662] (first compound 0.01 µM, partner dose 2 µM)",cell count,WM115,91.3%
same,cell count,WM1716,90.2%
same,cell count,WM1745,110%
same,cell count,WM3526,114%
same,cell count,WM3619,86.2%
same,cell count,WM451Lu,109%
"O=C(/C=C/c1cccnc1)NCCCCC1CCN(C(=O)c2ccccc2)CC1 + Nc1cccc2c1CN(C1CCC(=O)NC1=O)C2=O [lenalidomide] (first compound 0.01 µM, partner dose 1 µM)",cell count,WM115,88.7%
same,cell count,WM1716,96%
same,cell count,WM1745,88.8%
same,cell count,WM3526,96%
same,cell count,WM3619,92%
same,cell count,WM451Lu,92.6%
"O=C(/C=C/c1cccnc1)NCCCCC1CCN(C(=O)c2ccccc2)CC1 + O=c1cc(-c2cccc3c2Sc2ccccc2S3)oc(N2CCOCC2)c1 [KU55933] (first compound 0.01 µM, partner dose 1 µM)",cell count,WM115,88.7%
same,cell count,WM1716,92.8%
same,cell count,WM1745,84%
same,cell count,WM3526,89.9%
same,cell count,WM3619,81.2%
same,cell count,WM451Lu,117%
"CC1(C)CCC(c2ccc(Cl)cc2)=C(CN2CCN(c3ccc(C(=O)NS(=O)(=O)c4ccc(N[C@H](CCN5CCOCC5)CSc5ccccc5)c(S(=O)(=O)C(F)(F)F)c4)cc3)CC2)C1 + Cc1nc(Nc2ncc(C(=O)Nc3c(C)cccc3Cl)s2)cc(N2CCN(CCO)CC2)n1 [dasatanib] (first compound 0.4 µM, partner dose 0.004 µM)",cell count,WM115,72.4%
same,cell count,WM1716,66.2%
same,cell count,WM1745,4.6%
same,cell count,WM3526,108%
same,cell count,WM3619,70.5%
same,cell count,WM451Lu,69.3%
"Cc1ccc(Nc2nccc(N(C)c3ccc4c(C)n(C)nc4c3)n2)cc1S(N)(=O)=O [Pazopanib] + CO[C@H]1C[C@@H]2CC[C@@H](C)[C@@](O)(O2)C(=O)C(=O)N2CCCC[C@H]2C(=O)O[C@H]([C@H](C)C[C@@H]2CC[C@@H](OCCO)[C@H](OC)C2)CC(=O)[C@H](C)/C=C(\C)[C@@H](O)[C@@H](OC)C(=O)[C@H](C)C[C@H](C)/C=C/C=C/C=C/1C [everolimus] (first compound 0.4 µM, partner dose 0.02 µM)",cell count,WM115,81.2%
same,cell count,WM1716,64.8%
same,cell count,WM1745,95.5%
same,cell count,WM3526,70.9%
same,cell count,WM3619,77.9%
same,cell count,WM451Lu,85%
"CC1(C)CCC(c2ccc(Cl)cc2)=C(CN2CCN(c3ccc(C(=O)NS(=O)(=O)c4ccc(N[C@H](CCN5CCOCC5)CSc5ccccc5)c(S(=O)(=O)C(F)(F)F)c4)cc3)CC2)C1 + NC(=O)Nc1cc(-c2cccc(F)c2)sc1C(=O)N[C@H]1CCCNC1 [AZD7762] (first compound 0.4 µM, partner dose 0.02 µM)",cell count,WM115,59.7%
same,cell count,WM1716,52.5%
same,cell count,WM1745,16.7%
same,cell count,WM3526,69.6%
same,cell count,WM3619,24.9%
same,cell count,WM451Lu,67.8%
"CC1(C)CCC(c2ccc(Cl)cc2)=C(CN2CCN(c3ccc(C(=O)NS(=O)(=O)c4ccc(N[C@H](CCN5CCOCC5)CSc5ccccc5)c(S(=O)(=O)C(F)(F)F)c4)cc3)CC2)C1 + N#Cc1c(O)c2c(-c3ccc(-c4ccccc4O)cc3)csc2[nH]c1=O [A769662] (first compound 0.4 µM, partner dose 2 µM)",cell count,WM115,97.4%
same,cell count,WM1716,65%
same,cell count,WM1745,6.6%
same,cell count,WM3526,87.4%
same,cell count,WM3619,85.5%
same,cell count,WM451Lu,81.4%
